# Data taken from PubChem BioAssay (NCATS).
# Inconclusive means that the source gave no clear call. Such entries were picked first, then a sample of the others. Where the call is inconclusive, the potency comes from a doubtful curve fit. Active and inactive are the calls of the source. The call rests on the fitted dose curve; in most records, active means well fitted inhibition curve with a large enough effect; inconclusive means small, poorly fitted or top-dose-only effect; inactive means no such curve, though single readings can be large or run the other way.
# Biological target: Retinaldehyde dehydrogenase 3 (Homo sapiens) (UniProt P47895)
# Test: qHTS for Inhibitors of the Aldehyde Dehydrogenase Family (ALDH1A3) Primary screen (AID 2061315)
# Conditions: ALDH inhibition qHTS; activity change, negative = inhibition: at 56 µM (top of the series) unless noted
# Potency means the concentration at half of the fitted maximal effect; tags describe the fitted curve by direction and shape.
row,SMILES,Potency
1,C=CCNc1nnc(-c2cccc3ccccc23)o1,"inconclusive: 11.2 µM [inhibitor, partial curve, poor fit]"
2,COc1ccc(-c2nc3ccccc3c(=O)n2Cc2ccc(CNC(=O)CO)cc2)cc1COc1ccc(NC(C)=O)cc1,"inconclusive: 14.1 µM [inhibitor, partial curve]"
3,CN1CCN(c2ccc(Nc3nn4c(=O)c5ccccc5nc4s3)cc2)CC1,inactive
4,OC[C@@]1(O)CO[C@@H](OC[C@H]2O[C@@H](Oc3ccccc3)[C@H](O)[C@@H](O)[C@@H]2O)[C@@H]1O,"inconclusive: 8.91 µM [inhibitor, partial curve]"
5,Cc1ccc(S(=O)(=O)Nc2cnccc2C(=O)Nc2ccc(N3CCOCC3)cc2)cc1,"inconclusive: 25.1 µM [inhibitor, single point]"
6,COC(=O)c1ccc(OC(CO)C(O)c2ccc(O)c(OC)c2)c(OC)c1 (stereo not drawn),"inconclusive: 8.91 µM [inhibitor, partial curve]"
7,COc1cc([C@@H](O[C@@H]2O[C@H](CO)[C@@H](O)[C@H](O)[C@H]2O)[C@@H]2CO[C@H](c3ccc(O)c(OC)c3)[C@H]2CO)ccc1O,"inconclusive: 10 µM [inhibitor, single point]"
8,COc1ccc(S(=O)(=O)Nc2cc(OC)cc3cccnc23)cc1,"inconclusive: 7.94 µM [inhibitor, partial curve]"
9,O=C(OC1C=C(CO)C2C(OC3OC(CO)C(O)C(O)C3O)OC=CC12O)c1ccc(O)cc1 (stereo not drawn),"inconclusive: 12.6 µM [inhibitor, partial curve]"
10,C=CC(=O)Nc1cccc(Nc2nc(Nc3ccc(NC4CN(CCF)C4)cc3OC)ncc2C(F)(F)F)c1,"inconclusive: 3.16 µM [inhibitor, full curve]"

# Biological target: Aldehyde dehydrogenase 1A1 (Homo sapiens) (UniProt P00352)
# Test: qHTS for Inhibitors of the Aldehyde Dehydrogenase Family (ALDH1A1) Confirmatory screens (AID 2061316); further: nearly all actives have a fitted effect of over 65% in size
# Conditions: ALDH inhibition qHTS; activity change, negative = inhibition: at 47.3 µM (top of the series); series mostly up to 47.3 µM
row,SMILES,Potency
1,C=CCNc1nnc(-c2cccc3ccccc23)o1,active: 7.98 µM
2,O=c1[nH]c2ccc(NCc3ccc(-c4ccccc4F)o3)cc2[nH]1,"inconclusive: 15.8 µM [inhibitor, partial curve, poor fit]"
3,CNc1ncc(-c2cccc3ccccc23)o1,"inconclusive: 12.7 µM [inhibitor, partial curve]"
4,O=C(CN1C(=O)N/C(=C\c2cn(-c3cccc(C(=O)O)c3)cn2)C1=O)Nc1ccccc1Cl,inactive
5,Nc1ncc(-c2cccc(-c3nn4c(=O)cc(N5CCNCC5)nc4s3)c2)cn1,"inconclusive: 1.59 µM [inhibitor, full curve, poor fit]"
6,O=C1Nc2ccccc2/C1=C\c1ccc([N+](=O)[O-])cc1,"inconclusive: 15.9 µM [inhibitor, partial curve]"
7,COc1ccc(-c2nc3ccccc3c(=O)n2Cc2ccc(CNC(=O)CO)cc2)cc1COc1ccc(NC(C)=O)cc1,"inconclusive: 28.3 µM [inhibitor, partial curve]"
8,COc1ccc(-c2nc(CNS(=O)(=O)c3cccc(F)c3)cs2)cc1,"inconclusive: 22.9 µM [inhibitor, partial curve]"
9,Cn1nnnc1Sc1ncnc2scc(Br)c12,"inconclusive: 25.2 µM [inhibitor, partial curve]"
10,CN1CCN(c2ccc(Nc3nn4c(=O)c5ccccc5nc4s3)cc2)CC1,active: 12.7 µM
11,OC[C@@]1(O)CO[C@@H](OC[C@H]2O[C@@H](Oc3ccccc3)[C@H](O)[C@@H](O)[C@@H]2O)[C@@H]1O,inactive
12,O=C(Nc1ccc2ccccc2c1)Nc1nnc(-c2cccnc2)s1,"inconclusive: 20.1 µM [inhibitor, partial curve]"
13,COc1ccc(C[C@H](N)C(=O)N[C@H]2[C@@H](O)[C@H](n3cnc4c(N(C)C)ncnc43)O[C@@H]2CO)cc1,inactive
14,Cc1ccc(S(=O)(=O)Nc2cnccc2C(=O)Nc2ccc(N3CCOCC3)cc2)cc1,"inconclusive: 11.3 µM [inhibitor, partial curve]"
15,CCCCNc1ccc(C(=O)OCCN(CC)CC)cc1,inactive
16,Cc1ccc(OCCn2c(CCNC(=O)c3cccc(N)c3)nc3ccccc32)cc1,inactive
17,COc1ccc(-n2ccnc(NCc3ccc(Cl)cc3)c2=O)cc1,"inconclusive: 22.9 µM [inhibitor, partial curve]"
18,COc1cccc(-n2cc(C(=O)Nc3cccc(C(F)(F)F)c3)c3ccccc3c2=O)c1,"inconclusive: 20.5 µM [inhibitor, partial curve]"
